# Out of some 52,000 compounds screened, about 1,700 (3.3%) were called active. No stated cut-off is given here; in the data, active means survival mostly below about 52% (no sharp cut-off); inactive means mostly above about 56%. The list shows a part of the results.
# Tested on: Wild type
# Test: S. aureus survival, RN4220 and DeltatarO strains – OD600, teichoic acid synthesis inhibitors, primary screen (AID 463173)
# Conditions: S. aureus RN4220 wild type/DeltatarO growth, OD600, 18 h, stronger effect = lower value, screened at 18.75 µg/mL (by protocol)
row,Compound,survival
1,CCOC(=O)C1CCCN(C(=O)Cn2ncc3c([nH]c4ccc(C)cc43)c2=O)C1 (stereo not given),inactive: 55%
2,Cc1ccccc1-c1nnc(SCC(=O)N2c3ccccc3Sc3ccccc32)o1,inactive: 105%
3,Cc1ccc(C)c(N2CCN(C(=O)c3ccc4[nH]c(C)c(C)c4c3)CC2)c1,inactive: 74%
4,CC(Sc1nnc(C2CCCCC2)n1-c1cccc(Cl)c1)C(=O)O (stereo not given),inactive: 122%
5,CCCC(CCC)C(=O)Nc1cccc(-c2cn3cccnc3n2)c1,inactive: 75%
6,Cc1ccc(OCc2nc(-c3ccc(C(=O)NCCc4ccc(S(N)(=O)=O)cc4)cc3)oc2C)cc1,inactive: 84%
7,CCc1ccc(NC(=O)CCCc2nc(-c3ccco3)no2)cc1,inactive: 79%
8,COc1cc2[nH]c(=O)n(CCCC(=O)NCc3ccccc3)c(=O)c2cc1OC,inactive: 133%
9,COc1ccccc1CNC(=O)CN1C(=O)CCc2cc(S(=O)(=O)N3CCOCC3)ccc21,inactive: 131%
10,O=C(Nc1ccc2nc(SCC(=O)N3CCCC3)sc2c1)c1ccccc1F,inactive: 70%
11,COc1ccc(CNC(=O)c2c(Nc3ccccc3C)sc(C(=O)c3ccccc3)c2N)cc1,inactive: 70%
12,O=C(CCc1ccccc1)NNc1cc(N2CCCCC2)nc(N2CCCCC2)n1,inactive: 110%
13,COc1ccc2[nH]c3c(=O)n(/N=C/c4ccccc4)cnc3c2c1,inactive: 108%
14,COc1ccc(NC(=O)c2cc(-c3ccccc3O)no2)cc1,inactive: 83%
15,CC1CN(C(=O)N2CCC(C(=O)NCc3ccco3)CC2)c2cc(Cl)ccc2O1 (stereo not given),inactive: 84%
16,Cc1ccc(NC(=O)CN2C(=O)CCc3cc(S(=O)(=O)N4CCCCC4)ccc32)cc1N(C)C,inactive: 73%
17,O=C(CSc1nc(-c2cccs2)nc2cc(=O)[nH]n12)Nc1ccc(F)cc1,inactive: 75%
18,CCOc1ccc(NC(=O)CNS(=O)(=O)c2ccc(Br)s2)cc1,inactive: 70%
19,CC(C)NC(=O)C1CCCN1C(=O)Nc1ccccc1 (stereo not given),inactive: 109%
20,CCOC(=O)c1cnc2c(C(F)(F)F)cccc2c1Nc1cccc(C(=O)OC)c1,inactive: 26%
21,CCOc1ccccc1NC(=O)CSc1nc2c(oc3ccccc32)c(=O)n1Cc1ccco1,inactive: 86%
22,COc1ccc(CCNC(=O)Cn2cc(S(=O)(=O)Cc3cccc(Cl)c3)c3ccccc32)cc1OC,inactive: 128%
23,COc1ccc(-c2noc(CSc3nnc(-c4ccc(Cl)cc4)n3C)n2)cc1OC,inactive: 94%

row,Compound,survival
1,CCc1cnc2c(c1SCC(=O)Nc1cc(Cl)ccc1OC)c(=O)n(C)c(=O)n2C,inactive: 73%
2,Cc1ccc(Cl)cc1NC(=O)CSc1nc(C)c(C)c(C)c1C#N,inactive: 86%
3,CC(C)c1ccc(NC(=O)CSc2nc(=O)n(Cc3cccnc3)c3c2CCC3)cc1,inactive: 152%
4,CN1CCN(C(=O)Nc2cccc(Cl)c2)c2cccnc21,inactive: 118%
5,Cc1ccc(CNC(=O)C2CCCN(S(=O)(=O)c3ccc4c(ccn4C)c3)C2)cc1 (stereo not given),inactive: 81%
6,CCCCN(CCCC)CCNC(=O)c1cc(=O)[nH]c2ccc(S(=O)(=O)N3CCCCCC3)cc12,inactive: 129%
7,CCc1ccc(CNC(=O)C2CCN(C(=O)N3CC(CC)Oc4ccc(C)cc43)CC2)cc1 (stereo not given),inactive: 56%
8,Cc1cc(C)c(NC(=O)CSc2ncc(S(=O)(=O)c3ccc(C(C)(C)C)cc3)c(=O)[nH]2)c(C)c1,inactive: 85%
9,O=C(NC1CCCC1)c1ccc2c(c1)N(Cc1ccccc1Cl)C(=O)c1ccccc1S2,inactive: 67%
10,COc1ccccc1Nc1c2c(nc3ccc(NC(=O)c4cccc(F)c4)cc13)CCCC2,inactive: 35%
11,CCc1ccccc1Nc1nn2c(=O)c3ccc(C(=O)NC4CCCCC4)cc3nc2s1,inactive: 71%
12,COc1cc(OC)c(NC(=O)c2c3c(nn2C)-c2ccccc2SC3)cc1Cl,inactive: 117%
13,Cc1ccn2c(=O)c(C(=O)NCc3ccccc3Cl)c(O)nc2c1,inactive: 82%
14,CCOC(=O)c1c(N)n(-c2cccc(C)c2C)c2nc3ccccc3nc12,inactive: 71%
15,COC(=O)C(CCSC)NC(=O)c1cc2c(n(-c3ccc(OC)cc3)c1=O)CC(C)(C)CC2=O (stereo not given),inactive: 82%
16,COc1cccc(C(=O)Nc2ccc(NC(=O)c3ccc(C(C)(C)C)cc3)cc2)c1,inactive: 122%
17,CCOC(=O)CC(N)c1ccc2c(c1)OCO2 (stereo not given),inactive: 111%
18,Cc1ccc(N2CC(NC(=O)C3CCCCC3)CC2=O)cc1C (stereo not given),inactive: 81%
19,COc1cccc2c1Oc1ncccc1N(c1ccc(C(=O)NCc3cccc(C)c3)s1)C2,inactive: 87%
20,CC(=O)Nc1ccc2c(c1)n(C)c(=O)n2C,inactive: 98%
21,CC1(C(=O)Nc2ncc(Cc3ccc(Br)cc3)s2)Cc2ccccc2C(=O)O1 (stereo not given),inactive: 118%
22,COc1ccc(S(=O)(=O)Nc2cccc(-c3ccc(N4CCCCCC4)nn3)c2)c(OC)c1,inactive: 76%
23,COc1ccc(-c2nc3scc(CCNC(=O)Cc4ccc(F)cc4)n3n2)cc1,inactive: 74%

row,Compound,survival
1,CCC(C)NC(=O)c1ccc2nc(Cc3ccccc3)oc2c1 (stereo not given),inactive: 66%
2,CCN(c1ccccc1)S(=O)(=O)c1nnc(NC(=O)c2ccco2)s1,inactive: 64%
3,Cc1ccccc1-c1nnc(SCC(=O)N2CCCCC2)o1,inactive: 64%
4,CCOc1ccc(NS(=O)(=O)c2ccc3nc(-c4ccccc4)[nH]c3c2)cc1,inactive: 57%
5,COc1cc(OC)c(Nc2c3c(nc4nc(-c5cccs5)nn24)CCCC3)cc1Cl,inactive: 85%
6,O=C(Nc1cc(Cl)cc(Cl)c1)c1ccc(F)c(S(=O)(=O)NCc2ccccc2Cl)c1,inactive: 92%
7,Cc1csc2nc(COc3ccccc3NC(=O)c3ccccc3Cl)cc(=O)n12,inactive: 87%
8,COc1cc(CN(C(=O)COc2ccc(Cl)c(C)c2)c2ccccn2)cc(OC)c1OC,inactive: 78%
9,Cc1ccc(-c2nc(CS(=O)(=O)CC(=O)Nc3cc(C)ccc3C)c(C)o2)cc1,inactive: 137%
10,Cn1c(=O)cc(OCC(=O)NCc2ccc(F)cc2Cl)c2ccccc21,inactive: 117%
11,COc1ccc(CCNC(=O)CCCn2nc(C)c3sc4ccccc4c3c2=O)cc1OC,inactive: 85%
12,Cc1nn(-c2ccccc2)c2sc(C(=O)Nc3cccc(O)c3)cc12,inactive: 43%
13,CC(=O)N1CCN(c2nc(N3CCCCC3)nc(N3CCCCC3)n2)CC1,inactive: 101%
14,Cc1ccc(-n2ncc(C(=O)Nc3c(Cl)cccc3Cl)c2C2CCNCC2)cc1,inactive: 129%
15,CSc1nc2c([nH]c3ccccc32)c(=O)n1-c1ccc(C)cc1,inactive: 76%
16,Cc1ccc2nc(-c3ccc(Cl)c(NC(=O)c4ccc(Br)o4)c3)oc2c1,inactive: 69%
17,O=C(COCc1cc(-c2ccc3c(c2)OCO3)on1)NCc1ccc(F)cc1,inactive: 80%
18,CSc1ccc(CCNC(=O)c2ccc(CS(=O)Cc3ccc(Cl)cc3)o2)cc1 (stereo not given),inactive: 71%
19,O=C(CSc1nc(-c2cccs2)nc2cc(=O)[nH]n12)Nc1ccccc1Cl,inactive: 88%
20,COc1cc(C2CC(=O)Nc3c2c(C)nn3-c2nncc(-c3ccccc3)n2)cc(OC)c1OC (stereo not given),inactive: 89%
21,Cc1ccc(C)c(N2CCN(S(=O)(=O)c3cc(C(=O)Nc4cc(Cl)cc(Cl)c4)ccc3F)CC2)c1,inactive: 85%
22,Cc1ccc(Cl)cc1NC(=O)c1cc(S(=O)(=O)N2CCCCCC2)cn1C,inactive: 78%
23,CCc1ccc2c(c1)NC(c1cccnc1)=NC(c1ccc(C(C)(C)C)cc1)=N2,inactive: 71%

row,Compound,survival
1,Cc1cccc(-c2nc(CSCC(=O)N3CCN(c4cccc(C)c4C)CC3)c(C)o2)c1,active: 0%
2,CC(=O)Nc1nnc(SCC(=O)N2C(C)CCCC2C)s1 (stereo not given),inactive: 97%
3,O=C(Nc1ccccc1Cl)c1cc2c(-c3ccccc3)nn(-c3ccccc3)c2s1,inactive: 67%
4,CCN(c1ccccc1)c1nnc(NC(=O)Nc2ccc(C)cc2)s1,inactive: 88%
5,O=C(OCc1cc(=O)n2nc(-c3cccs3)sc2n1)c1ccc(F)cc1,inactive: 72%
6,Cc1ccc2nc3c(cc(C#N)c(=O)n3-c3nnc(SCc4ccccc4Cl)s3)c(=O)n2c1,inactive: 104%
7,COc1ccc(/C=C/c2nc(C#N)c(N3CCC(C)CC3)o2)cc1OC,inactive: 98%
8,N#CCCCn1c(=O)oc2ccccc21,inactive: 84%
9,COc1ccc(Nc2ncc3c(n2)CCN(Cc2ccc(Br)s2)C3)c(OC)c1,inactive: 127%
10,CCOc1ccc(C(=O)Nc2cccc(-c3nc4cccnc4s3)c2C)cc1OCC,inactive: 98%
11,CCC(=O)Nc1cc2c(cc1C(=O)CC)OCCO2,inactive: 113%
12,CSc1ccc(CCNC(=O)c2ccc(-n3c(C)cc4c3CCCC4)cc2)cc1,inactive: 83%
13,CC(=O)N1N=C(c2ccc(C)cc2)CC1c1cn(-c2ccccc2)nc1-c1cccs1 (stereo not given),inactive: 132%
14,C=CCn1c(=O)[nH]c2c1c(=O)n(C)c(=O)n2C,inactive: 107%
15,COc1ccc(Br)cc1CNC(=O)C1CCCCN1S(=O)(=O)c1ccc(F)cc1 (stereo not given),inactive: 88%
16,Cc1ccc(OCc2nc3ccccc3n2Cc2ccccc2Cl)cc1,active: 7%
17,CCCNC(=O)CCc1c(C)nc2nc(-c3cc(OC)cc(OC)c3)nn2c1C,inactive: 78%
18,COc1cccc(CNC(=O)CCC(=O)N2Cc3cccc(OC)c3Oc3ncccc32)c1OC,inactive: 66%
19,COc1ccc(NC(=O)c2ccc(COc3ccccc3OC)o2)cc1OC,inactive: 71%
20,CCn1cc(C(=O)NCc2ccccc2)c(=O)c2cc(S(=O)(=O)N3CCCCCC3)ccc21,inactive: 65%
21,O=C(Cc1ccccc1)Nc1c(C(=O)Nc2ccccc2F)oc2ccccc12,inactive: 86%

# Reference: PubChem BioAssay AID463173 (ICCB-Longwood Screening Facility, Harvard Medical School, 2010)
